We go through 24 compounds from PubChem BioAssay (NCATS).

The list shows a part of the results. Further columns of the screen follow, without active or inactive calls. Most of these compounds were active or inconclusive in the main read-out, so they are no random draw. Potencies come from curve fits of mixed quality, noted in brackets.

This assay is described as follows: qHTS Assay for Lipid Storage Modulators (AID 1519). As to conditions: Drosophila S3 cells, BODIPY lipid droplet/cell ratio, laser cytometry, cells loaded with oleic acid. In short, it runs like this:
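Cells seeded at 5,000 per well were treated with compounds over a concentration series and loaded with oleic acid (400 uM, as added). Lipid droplet fluorescence (488 nm excitation, 500-530 nm channel) was read by laser-scanning cytometry and normalized to 20 uM Triacsin C.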

Setting [1] is: measured here: cell count channel max response.
[2] abbreviates: measured here: lipid (BODIPY) channel AC50.
The mark [3] stands for this setting: measured here: lipid channel max response.
[4] abbreviates: measured here: cell number channel AC50.
Tags give direction and shape of the fitted curve.

Usually AC50 stands for the midpoint of the concentration-response curve, whichever way the signal moves. On to `Cn1c(=O)c(-c2cc(F)cc(F)c2)nc2cnc(N3CCNCC3)nc21`, for which the max response under setting [1] stood at 22.4% and the max response under setting [3] was 30.5%. The AC50 under setting [2] is 17.8 µM [rising, single point].

As for `CN1CCN(c2ncc3nc(-c4ccccc4)c(=O)n(-c4ccccc4)c3n2)CC1`, the max response came out at 26.8% under setting [1] and 34.5% under setting [3]. Moreover, under setting [2], the AC50 was 0.708 µM [rising, full curve, poor fit].

With `COc1ccc(NC(=O)N2CCCC3(CCN(C(=O)c4ccc(OC)cc4)CC3)C2)cc1`, the max response was determined as 24.1% under setting [1] and 34.6% under setting [3]. For the same compound, the AC50 under setting [2] is 7.94 µM [rising, full curve, poor fit].

As to `O=C1CC(c2ccc(O)cc2)Oc2ccccc21` (configuration not stated), the max response runs as follows: under setting [1], -3.38%; under setting [3], -6.33%. Moreover, the AC50 under setting [2] was 4.47 µM [rising, partial curve].

With `COCCn1c(=O)c(-c2ccc(F)c(F)c2)nc2cncnc21`, the max response amounted to 10.8% under setting [1] and 17.2% under setting [3]. In addition, under setting [2], the AC50 is 3.98 µM [rising, partial curve, poor fit].

Regarding `CN(Cc1ccco1)c1nc(-c2cccnc2)nc2ccccc12`, the max response is, setting by setting: under setting [1], 7.24%; under setting [3], 10.9%. Further, under setting [2], the AC50 is 3.98 µM [rising, partial curve].

For the compound `COc1ccc(Oc2ncc3nc(CCc4ccccc4)c(=O)n(C[C@H]4CCCO4)c3n2)cc1`, the max response is -6.88% under setting [1] and -63.1% under setting [3]. In addition, under setting [2], the AC50 was 39.8 µM [falling, single point].

Regarding `O=C(c1cccc(F)c1)N1CCC2(CC1)CN(c1ccccc1)C2`, the max response under setting [1] was 9.49% and the max response under setting [3] was found to be 15.4%. For the same compound, the AC50 under setting [2] was 1 µM [rising, full curve, poor fit].

As to `CCNc1ncc2nc(C)c(=O)n(CCOC)c2n1`, the max response reads like this: under setting [1], 19.8%; under setting [3], 20%. Besides, under setting [2], the AC50 was 3.55 µM [rising, full curve, poor fit].

On to `COc1ncc2nc(-c3cn(C)c4ccccc34)c(=O)n(C[C@H]3CCCO3)c2n1`, for which the max response is, setting by setting: under setting [1], 16%; under setting [3], 19.4%. Moreover, under setting [2], the AC50 was 1.26 µM [rising, full curve, poor fit].

Turning to `COCCn1c(=O)c(-c2ccc(OC)cc2)nc2cnc(N3CCOCC3)nc21`, the max response was found to be 9.13% under setting [1] and 9.48% under setting [3]. For the same compound, under setting [2], the AC50 was 1.78 µM [rising, partial curve].

For `COc1c2c(cc3occ(-c4ccc5c(c4)OCO5)c(=O)c13)OC(C)(C)C=C2`, the max response was 14.5% under setting [1] and -0.915% under setting [3]. In addition, the AC50 under setting [2] is 0.0631 µM [rising, full curve, poor fit].

Consider `CN(C)c1ncc2nc(-c3ccc(F)cc3)c(=O)n(-c3ccccc3)c2n1`, for which the max response came to 28.2% under setting [1] and 32.3% under setting [3]. Also, the AC50 under setting [2] was 4.47 µM [rising, full curve, poor fit].

On to `COc1ncc2nc(C)c(=O)n(C[C@H]3CCCO3)c2n1`, for which the max response was determined as 31.5% under setting [1] and 42.8% under setting [3]. Besides, the concentration at half-maximal activity (AC50) under setting [2] was 15.8 µM [rising, partial curve, poor fit].

`O=c1c(-c2ccc(F)cc2)nc2cnc(N3CCOCC3)nc2n1Cc1ccc(F)cc1`: the max response is, setting by setting: under setting [1], 21.1%; under setting [3], 31.3%. The AC50 under setting [2] is 5.01 µM [rising, full curve, poor fit].

In the case of `O=C(NCCO[N+](=O)[O-])c1cccnc1`, the max response runs as follows: under setting [1], 15.8%; under setting [3], 26.5%. Under setting [2], the AC50 is 3.16 µM [rising, full curve, poor fit].

In the case of `CC(=O)OCC(=O)[C@@]1(O)CCC2C3CCC4=CC(=O)CC[C@]4(C)C3C(=O)C[C@]21C` (some centres not stated), the max response worked out at 24.3% under setting [1] and 39.2% under setting [3]. Further, under setting [2], the AC50 is 10 µM [rising, partial curve].

For `C[C@H]1[C@H](C)CC[C@]2(C(=O)O)CC[C@]3(C)C(=CCC4[C@@]5(C)C[C@@H](O)[C@H](O)[C@@](C)(CO)[C@@H]5CC[C@]43C)[C@H]12` (some centres not stated), the max response worked out at 31.3% under setting [1] and 22.5% under setting [3]. Besides, the concentration at half-maximal activity (AC50) under setting [4] was 31.6 µM [rising, single point].

In the case of `CCCN(CCC)CCc1cccc2c1CC(=O)N2`, the max response came out at 28% under setting [1] and 33.5% under setting [3]. Also, the AC50 under setting [2] was 39.8 µM [rising, single point].

As for `COCCn1c(=O)c(C)nc2cnc(OC)nc21`, the max response reads like this: under setting [1], 14.6%; under setting [3], 20%. The AC50 under setting [2] is 5.01 µM [rising, single point].

On to `C[C@]12CCC(=O)C=C1CCC1C2C(O)C[C@]2(C)C1CC[C@]2(O)C(=O)COC(=O)CCC(=O)O` (some centres not stated), for which the max response under setting [1] amounted to 32.8% and the max response under setting [3] was 45.4%. In addition, the AC50 under setting [2] is 39.8 µM [rising, single point].

For the compound `COCCn1c(=O)c(-c2ccc(F)cc2)nc2cnc(Nc3cccc(OC)c3)nc21`, the max response amounted to 30.5% under setting [1] and 0.166% under setting [3]. Besides, under setting [4], the AC50 was 39.8 µM [rising, single point].

As to `COc1cc(C(=O)NCc2ccc(OCCN(C)C)cc2)cc(OC)c1OC`, the max response is, setting by setting: under setting [1], 16.6%; under setting [3], 31.5%. Further, the AC50 under setting [2] was 12.6 µM [rising, partial curve, poor fit].

Take `COc1ccc2[nH]cc(CCNc3ccnc(-c4ccc(C(=O)N(C)C)cc4)n3)c2c1`: the max response runs as follows: under setting [1], 11%; under setting [3], 13.5%. In addition, the AC50 under setting [2] is 0.0282 µM [rising, full curve].
